In PubChem BioAssay (NCI):
“And” between values parts separate entries of the source, which are not always exact repeats. Identical values can stand only once.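 Five compound concentrations were applied to cells in 96-well plates for 48 hours; endpoints were derived by simple linear interpolation of the resulting dose-response curve. GI50 = concentration required for 50% inhibition of growth. TGI is the concentration that stops growth completely.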

These compounds were tested on NCI-H322M lung (assay: NCI-60 cell line screen, 48 h).

SMILES	GI50	TGI
Cc1ccc(C)c(NC2=C(Cl)C(=O)c3nc(C)ccc3C2=O)c1	2.68 µM	10.5 µM
COc1ccc2c(c1)C=CC1(O2)Oc2ccc(OC)cc2C=C1C (stereo not drawn)	2.15 µM	> 100 µM
C[C@@H]1C[C@H]2C(=O)OCC(NC(=O)[C@H](Cc3cc(F)cc(F)c3)NC(=O)Nc3ccc(Cl)cc3F)C(=O)N3CCC[C@H]3C(=O)N3CCCC[C@H]3C(=O)N[C@@H](C)C(=O)N2C1 (stereo partly drawn)	3.22 µM and 2.34 µM	50 µM and > 100 µM
CCNC(=O)N1CCc2cc(OC)c(OCCc3ccc(OC)cc3)cc2C1c1ccc(OC)cc1C (stereo not drawn)	3.02 µM	> 100 µM
